Laboratory results published in PubChem BioAssay AID1159614 (National Center for Advancing Translational Sciences (NCATS), 2016).
The campaign covered roughly 45,000 compounds. About 65 (0.1%) were called active. The call rests on the fitted dose curve; in most records, active means well fitted activation curve with a large enough effect; inconclusive means small, poorly fitted or top-dose-only effect; inactive means no such curve, though single readings can be large or run the other way. Some of the results follow.

Target: Galactocerebrosidase (Homo sapiens) (UniProt P54803)
Sequence of UniProt P54803 (P54803 whole entry, looked up): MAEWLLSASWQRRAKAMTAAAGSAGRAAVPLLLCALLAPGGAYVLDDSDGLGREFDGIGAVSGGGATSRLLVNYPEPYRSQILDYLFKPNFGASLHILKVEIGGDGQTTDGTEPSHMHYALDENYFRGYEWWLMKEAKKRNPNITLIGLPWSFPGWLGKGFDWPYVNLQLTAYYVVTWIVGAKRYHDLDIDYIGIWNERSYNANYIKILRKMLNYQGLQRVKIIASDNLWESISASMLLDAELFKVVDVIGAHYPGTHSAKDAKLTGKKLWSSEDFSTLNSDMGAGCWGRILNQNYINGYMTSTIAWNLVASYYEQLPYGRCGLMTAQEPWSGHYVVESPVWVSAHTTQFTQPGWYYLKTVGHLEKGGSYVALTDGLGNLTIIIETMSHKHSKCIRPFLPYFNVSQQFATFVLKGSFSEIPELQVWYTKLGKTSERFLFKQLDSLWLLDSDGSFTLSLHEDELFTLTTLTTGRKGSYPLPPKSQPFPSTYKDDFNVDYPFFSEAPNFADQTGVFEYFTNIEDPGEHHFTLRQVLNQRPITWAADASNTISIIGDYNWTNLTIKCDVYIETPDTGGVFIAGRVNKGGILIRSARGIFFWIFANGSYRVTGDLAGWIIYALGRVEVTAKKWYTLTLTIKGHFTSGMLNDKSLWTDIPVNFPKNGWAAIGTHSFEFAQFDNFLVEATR
Test: A Novel Cell-Based Assay to Identify Small Molecules for B -Galactocerebrosidase; further: 0% is about no effect; nearly all actives have a fitted effect of over 65% in size
Settings: 145M-Twi-hGALC-G270D cells (Twitcher mouse brain line with human GALC G270D), HMU-beta-Gal fluorescence, 48 h; series mostly up to 57.5 µM; activation: at the top concentration
In short: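 Fluorescence readout: HMU-β-gal cleavage by mutant GALC (0.1 mM final, citrate/phosphate pH 5.2 with 1 mg/mL taurocholate), stopped with carbonate/bicarbonate plus Triton X-100. Cells: murine Twitcher 145M-Twi expressing human G270D GALC; qHTS for activators.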

activation, inactive:
COc1ccc(NC(=O)CSc2nc3ccccc3n2CC(=O)N2CCCCC2C)cc1 (stereo not drawn) -15.3%
Cc1nn(CCC(=O)NCc2ccc(Cl)cc2)c(=O)c2nn(-c3ccccc3)c(C)c12 -6.65%
COc1ccc(-c2nc3ccc(C4=NNC(=O)CC4C)cc3[nH]2)cc1 (stereo not drawn) -8.79%
COc1ccc(CCCc2nnc(SCC(=O)Nc3cccc(C)c3)o2)cc1 -9.35%
CC(CNC(=O)C1CCN(C(=O)N2CCOc3ccc(Cl)cc32)CC1)c1ccccc1 (stereo not drawn) -6.72%
CCN(c1ccc(Cl)cc1)S(=O)(=O)c1nnc(NC(=O)c2ccccc2C)s1 -13.5%
O=[N+]([O-])c1cc(-c2nc(-c3ccco3)no2)ccc1NCc1ccccc1 -1.83%
Cc1nn(CCCC(=O)NCc2ccc(OC(C)C)cc2)c(=O)c2c1sc1ccccc12 -12.6%
COc1ccc(S(=O)(=O)c2nnn(-c3ccccc3F)c2C)cc1 -19.6%
Cc1ccc(Cc2nc3ccccc3nc2SCC(=O)N2CCN(c3ccccc3)CC2)cc1 -12.9%
Cc1ccc(NC(=O)CC2Nc3cc(C)c(C)cc3NC2=O)c(C)c1 (stereo not drawn) -9.58%
CCOc1ccccc1NC(=O)C1=C(C)Nc2ncnn2C1c1ccc(NC(C)=O)cc1 (stereo not drawn) 3.4%
N#CC1=C2SCN(C3CCCCC3)CN2C(=O)CC1c1c(F)cccc1Cl (stereo not drawn) -10.1%
CCc1ccc(Sc2cc(C(=O)O)c3ccccc3n2)cc1 -4.59%
COc1ccc(Cn2c(CO)cnc2SCc2ccc(F)cc2)cc1 -29.7%
CCN(CC)CCNC(=O)COc1ccc(OC)cc1 -4.45%
COc1ccc(-n2nc(C(=O)N(C)c3cc(Cl)ccc3OC)c3c4ccccc4n(C)c3c2=O)cc1 -8.42%
Cc1nn(CC(=O)N2CCN(c3cccc(C(F)(F)F)c3)CC2)c(=O)c2cc3sccc3n12 -25.6%
Cc1ccc(S(=O)(=O)c2[nH]c(-c3ccccc3)nc2SCCC(=O)O)cc1 -2.79%
Cc1ccc(N2CC(NC(=O)CCc3ccccc3)CC2=O)cc1C (stereo not drawn) -8.55%
CCCn1c(=N)n(CC(O)COc2ccccc2OC)c2ccccc21 (stereo not drawn) 12.1%
Cc1cccc(N(Cc2cc3ccccc3[nH]c2=O)C(=O)c2cccc(Cl)c2)c1 -20.2%
Cc1cccc(CCNC(=O)c2ccc(CSCc3cccc(Cl)c3)o2)c1 -15.3%
CCOc1ccc(NC(=O)CC(C)O)cc1 (stereo not drawn) -11.1%
CCCN1CCN(c2cc3c(cc2F)c(=O)c(S(=O)(=O)c2ccc(CC)cc2)cn3CC)CC1 -12.5%
CCn1ccc2c(OCC(=O)NCc3ccccc3)cccc2c1=O -11%
Cc1c(Cl)cccc1NC(=O)CSc1nc2ncccc2o1 -3.29%
CC1Cn2c(C(=O)NCc3cccc(Br)c3)cc3cccc(c32)S1 (stereo not drawn) -14.1%
CC(C)(C)C1CCc2nc(NC(=O)c3ccc([N+](=O)[O-])cc3)sc2C1 (stereo not drawn) 2.66%
COc1ccc2oc(-c3ccc(C)c(NC(=O)c4ccc(-c5ccccc5[N+](=O)[O-])o4)c3)nc2c1 -8.47%
Cc1cccc(-c2nc3c(cnn3-c3ccccc3)c(=O)n2-c2ccc(Br)cc2)c1 -18.5%
Cc1ccc(C(=O)O)cc1NC1(c2ccccc2)C(=O)c2ccccc2C1=O -18.1%
O=C(CCSCc1cccc(Cl)c1)NCc1ccc(F)cc1Cl -7.42%
Cc1ccc2[nH]c(CSc3nnc(NC(=O)c4ccccc4F)s3)cc(=O)c2c1 -18%
CCc1ccccc1NC(=O)c1sc2nc(C)cc(COC)c2c1N -16.2%
COc1ccccc1CNC(=O)C1CCCN(c2nnc(C)c3c(C)n(-c4ccccc4)nc23)C1 (stereo not drawn) -13.7%
CC(=O)OCC1=C(C(=O)O)N2C(=O)[C@@H](NC(=O)Cc3cccs3)[C@H]2SC1 -16.5%
Cc1cccc(CN2C(=O)N(c3ccc(C(C)C)cc3)S(=O)(=O)c3ccccc32)c1 -16%
O=C(COc1ccccc1F)Nc1ccc2oc(-c3cccc(Cl)c3)nc2c1 -23.2%
Cc1ccc(-c2ccc(=O)n(CC(=O)Nc3ccc(C)cc3Cl)n2)cc1 -13.2%
COc1ccccc1-c1nc(SCC(=O)NCc2ccc(C)cc2)c2c(=O)n(C)c(=O)n(C)c2n1 -11.5%
COc1ccc(C(=O)Nc2ccc3oc(-c4cccnc4)nc3c2)cc1 -14.5%
Clc1cccc(N2CCN(c3nc4ccccc4n4nnnc34)CC2)c1 -5.3%
COc1ccc(C2C=C(c3ccccc3)Nc3nc(NC(=O)c4cccc([N+](=O)[O-])c4)nn32)cc1 (stereo not drawn) -2.77%
COc1cccc(/C=C/c2nc(C#N)c(NCCc3ccccc3)o2)c1 -18.7%
Cc1c(C(=O)NCc2ccccc2)sc2nc3n(c(=O)c12)CCCCC3 -15.8%
CCOc1ccc(NC(=O)C2CC(=O)NC(=Nc3ccc(Cl)c(Cl)c3)S2)cc1 (stereo not drawn) -8.05%
CCOC(=O)c1ccc(NC(=O)C2CCCN(c3ncnc4onc(-c5ccc(F)cc5)c34)C2)cc1 (stereo not drawn) -9.04%
COc1cccc(CNC(=O)c2sc3nc(C)cc(C)c3c2-n2cccc2)c1OC 0.089%
Cc1ccc(OCC(=O)Nc2cccc(-c3nc4ccccc4s3)c2)cc1 -9.1%
COCCNC(=O)CCn1c(=O)c2cc(OC)c(OC)cc2n(CC(=O)Nc2ccc(Cl)cc2F)c1=O -16.3%
Cc1ccc(-c2n[nH]c3c2C(c2ccc(C(C)(C)C)cc2)NC3=O)cc1 (stereo not drawn) 5.76%
Cc1nn(S(=O)(=O)c2ccc(C(C)(C)C)cc2)c(C)c1S(=O)(=O)N1CCCCCC1 -6.36%
Cc1ccc(NC(=O)c2oc3ccc(S(=O)(=O)N4CCC5(CC4)OCCO5)cc3c2C)cc1C 8.48%
CCOC(=O)COc1ccc(CC)cc1C(=O)c1ccn2nc(-c3ccccc3)cc2n1 -7.27%
Cc1ccc(Cl)cc1N1CCN(C(=O)c2ccc(NC(=O)c3nsc4ccccc34)cc2)CC1 -3.8%
COC(=O)C(Cc1c[nH]c2ccccc12)NC(=O)COc1cccc(C)c1 (stereo not drawn) -8.88%
COC(=O)c1sccc1S(=O)(=O)N1CCN(c2cc(Cl)ccc2C)CC1 -6.95%
COc1cccc(Nc2ccc3cc(S(=O)(=O)N4CCC(C)CC4)ccc3n2)c1 0.771%
CCCCC(=O)NCc1nc2cccnc2n1Cc1ccc(OC)cc1 -10.8%
CCCOc1cccc(C(=O)Nc2cccc(-c3nc4ncccc4o3)c2C)c1 -3.79%
CCC1CN(C(=O)N2CCC(C(=O)NCc3ccc(N(C)C)cc3)CC2)c2ccccc2O1 (stereo not drawn) 7.05%
CCOc1ccc(-n2c(/C=C/c3cccc(F)c3)nc3cc(OC)c(OC)cc3c2=O)cc1 -14.4%
COc1ccc(-c2oc3ncn4nc(-c5ccccc5O)nc4c3c2-c2ccc(OC)cc2)cc1 -13.7%
COc1ccc(-c2cc(-c3ccc(F)cc3)nc3c2COc2ccc(F)cc2-3)cc1 -15.4%
Cc1ccccc1-c1nc2scc(CCNS(=O)(=O)c3ccccc3)n2n1 -33.1%
Cc1nn2c(=O)cc(COC(=O)c3cccc(NC(=O)CCc4ccccc4)c3)nc2s1 -4.36%
Cc1c(C(=O)NCc2ccccc2Cl)sc2nc3n(c(=O)c12)CCCCC3 -48.4%
CC(=O)c1cccc(NC(=O)C2CCN(C(=O)c3cnn(-c4ccccc4)c3-n3cccc3)CC2)c1 -8.78%
CCn1cc2nc(SCC(=O)Nc3ccc(OC)c(OC)c3)n(Cc3ccc(Cl)cc3)c(=O)c2n1 -13.4%
Cc1cn2c(=O)cc(COC(=O)c3cccc(NC(=O)c4ccc(C(C)(C)C)cc4)c3)nc2s1 -0.464%
CCOc1ccc(NC(=O)CN2C(=O)CC(C)Sc3ccccc32)cc1 (stereo not drawn) 1.78%
O=C1CN(C(=O)COc2ccc(Cl)cc2)C(c2ccccc2)c2cc(Br)ccc2N1 (stereo not drawn) -6.43%
CC(C)(C)OC(=O)N1CCC(c2c(C(=O)Nc3ccc4c(c3)OCCO4)cnn2-c2ccc(Cl)cc2)CC1 -21.8%
O=C(NCc1ccccc1)C1CCCN(S(=O)(=O)c2cccc3nsnc23)C1 (stereo not drawn) -12.5%
COc1cc2c(=O)n(Cc3ccccc3Cl)c(=O)n(CC(=O)Nc3ccc(C)c(C)c3)c2cc1OC -11.4%
CC(C)Oc1ccccc1C1C=C(C(=O)O)Nc2ncnn21 (stereo not drawn) -16.9%
COc1ccc(CCn2c3c(c(=O)[nH]c2=O)C(NC(=O)c2ccccc2F)(C(F)(F)F)C(=O)N3)cc1OC (stereo not drawn) -13.3%
COc1ccc(C)cc1NC(=O)C1CCN(S(=O)(=O)c2ccc3[nH]c(=O)oc3c2)CC1 -16.1%
Cc1cccc(C(=O)Nc2cc(-c3nc4cccnc4s3)ccc2C)c1 -10.6%
Cc1ccc2c(c1)C(Cc1ccccc1F)C(=O)N2 (stereo not drawn) -15.4%
CCn1cc(CCC(=O)NCc2ccc(C)cc2)c2ccccc21 -6.76%
COc1ccc(CCNC(=O)C(CC(C)C)N2Cc3ccccc3C2=O)c(OC)c1OC (stereo not drawn) -3.21%
O=C(CSc1oc(-c2ccccc2)nc1S(=O)(=O)c1ccc(Cl)cc1)Nc1ccc(F)cc1 -11.6%
CC1CCC(Nc2nc3c(-c4ccc(Cl)cc4)nnn3c3ccccc23)CC1 (stereo not drawn) -6.32%
Cc1ccc(Cn2cc(CCC(=O)NC3CCC(C)CC3)c3ccccc32)cc1 (stereo not drawn) -8.35%
CC(=O)c1ccc(NC(=O)CN2C(=O)CCc3ccccc32)cc1 -17.9%
CC(=O)/C=C/C=C1/C2CCC(C2)C1(C)C (stereo not drawn) -11.9%
Cc1ccc2occ(CC(=O)N(Cc3ccccc3Cl)C3CCS(=O)(=O)C3)c2c1 (stereo not drawn) -11.6%
CCOC(=O)c1cccc(NC(=O)NCc2cccn2Cc2ccccc2)c1 -1.02%
Cn1c(=O)oc2cc(S(=O)(=O)N3CCCC(C(=O)NCCc4ccc(Cl)cc4)C3)ccc21 (stereo not drawn) -15.1%
COc1ccccc1CNS(=O)(=O)c1ccc2c(c1)NC(=O)C(C)C(=O)N2 (stereo not drawn) -6.75%
CC(=O)Nc1ccc(/C=C/c2nc(-c3ccccc3O)n(-c3ccccc3)n2)cc1 -11.9%
O=C(NCc1ccccc1)c1cc2sccc2n1Cc1ccc(Cl)cc1 -17.3%
COC(=O)c1ccccc1NC(=O)Cn1c(CCC(=O)O)ccc1-c1cccs1 -10.5%
CCCCSc1nc(-c2ccc(OC)cc2)ccc1C#N -11.7%
Cc1ccc(-c2nc(-c3cc4c([nH]c3=O)CC(C)(C)CC4=O)sc2C)cc1 -7.55%
O=C(Cn1cc(SCc2ccc(C(F)(F)F)cc2)c2ccccc21)N1CCOCC1 -12.8%
